Data on four molecules can be found in patent US20170002056A1 (CHENGDU KANGHONG BIOTECHNOLOGIES, published 2017).

Experiment [1] has as its target T1, Human VEGF (rhVEGF165, R&D Systems 293-VE) (human, UniProt P15692 27-191).
T1 sequence (looked up): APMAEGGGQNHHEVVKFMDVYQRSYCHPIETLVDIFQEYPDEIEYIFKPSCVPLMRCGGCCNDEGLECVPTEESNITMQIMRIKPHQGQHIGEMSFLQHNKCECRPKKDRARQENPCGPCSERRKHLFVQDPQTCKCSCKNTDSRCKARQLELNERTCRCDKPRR
The experiment is described as follows: cell-based or functional assay.

For experiment [2], the target named is T1, Human VEGF (rhVEGF165, R&D Systems …). The experiment can be described thus: BLI (Octet QKe), biotin-hVEGF on streptavidin sensor, fusion protein in solution. On the procedure:
The binding affinity between human VEGF receptor fusion protein and human VEGF was detected on ForteBio bio-molecular interaction detector (Octet QKe, Pall) by Biolyayer-Interferometry(BLI). Human VEGF (catalog no. 293-VE-010, R&D SYSTEMS) and NHS-LCLC-biotin (catalog no. 21338, Thermo) were mixed evenly at 1:3 molar ratio, and placed at room temperature for 1 h, then the remaining NHS-LCLC-biotin was removed, giving the final labelled product biotin-hVEGF at 50 μg/ml. 50 μg/ml biotin-hVEGF was loaded on streptavidin sensor. Samples to be tested were formulated to different concentrations (600 nM, 200 nM, 66.7 nm, 22.2 nM, 7.4 nm, 2.46 nM, 0.82 nM, respectively) by sample diluting buffer (PBS, 0.1% BSA, 0.02% Tween-20, 0.003% NaN₃). The sample diluting buffer was served as blank control. Parameters for binding kinetics between hVEGF and receptor fusion protein were detected under kinetics analysis mode.
Background: In BLI a coated tip is dipped into the sample, and binding shifts an interference pattern.

Experiment [3] shares this target. The experiment can be described thus: ELISA, rhVEGF165 coated on plate, detection with anti-human IgG-Fc HRP; sample at Day 0. On the procedure:
(§1) Samples (fusion proteins KH02 and KH05) were diluted to 1600 ng/ml according to initial protein concentration. The volume of the 1600 ng/ml sample should be at least above 800 μl. A 4× serial dilution was conducted by adding 600 μl diluting solution to 200 μl sample, and such a diluting operation was repeated in series to obtain 8 different concentration gradients (including 1600 ng/ml).
(§2) The plate was rinsed as described above. Human IgG-Fc antibody HRP 0.5 μl was diluted by 10 ml blocking solution and the mixture was mixed evenly. 100 μl/well diluted test antibody was added to wells, and the plate was incubated at 37° C. for 1 h. 8) Color Development
(§3) 50 μl/well stop solution was added and the reaction was terminated. The microplate was placed under microplate reader to get a readout under 450 nm.

For experiment [4] the target is unchanged. The experiment can be described thus: ELISA, rhVEGF165 coated on plate, detection with anti-human IgG-Fc HRP; sample after 10 days at high temperature. As to the method:
as §1, §2, §3

Experiment [5] has the same target. The experiment is described as follows: ELISA, rhVEGF165 coated on plate, detection with anti-human IgG-Fc HRP; sample after 5 days at high temperature. As to the method: as §1, §2, §3

B1: Fusion protein KH03 (Fc fusion)
chain: GRPFVEMYSEIPEIIHMTEGRELVIPCRVTSPNITVTLKKFPLDTLIPDGKRIIWDSRKGFIISNATYKEIGLLTCEATVNGHLYKTNYLTHRQTNTIIDVVLSPSHGIELSVGEKLVLNCTARTELNVGIDFNWEYPSSKHQHKKLVNRDLKTQSGSEMKKFLSTLTIDGVTRSDQGLYTCAASSGLMTKKNSTFVRVHEKPFVAFGSGMESLVEATVGERVRIPAKYLGYPPPEIKWYKNGIPLESNHTIKAGHVLTIMEVSERDTGNYTVILTNPISKEKQSHVVSLPVYVPPGPG[omitted - human IgG1 Fc]
notes: also called VEGF receptor fusion protein; plasmid/clone 812
As usually defined, the Kd is the constant that tells how readily two partners part at equilibrium. A lower Kd goes with higher affinity. By koff is commonly meant a measure of how fast the partners let go of each other. A low value points to slow dissociation. Broadly, the kon is the rate constant with which the complex forms. Regarding B1, the “EC50 (nM), inhibition of VEGF-stimulated proliferation of HUVEC cells (CCK8)” value (from here on “EC50 (nM), inhibition”) in experiment [1] was determined as 2.11 nM. In addition, in experiment [2], the Kd amounted to 1.17 nM, the koff worked out at 0.000101 s⁻¹ and the on-rate (kon) is 86700 M⁻¹ s⁻¹.

B2: Fusion protein KH02 (Fc fusion)
chain: GRPFVEMYSEIPEIIHMTEGRELVIPCRVTSPNITVTLKKFPLDTLIPDGKRIIWDSRKGFIISNATYKEIGLLTCEATVNGHLYKTNYLTHRQTNTIIDVVLSPSHGIELSVGEKLVLNCTARTELNVGIDFNWEYPSSKHQHKKLVNRDLKTQSGSEMKKFLSTLTIDGVTRSDQGLYTCAASSGLMTKKNSTFVRVHEKPFVAFGSGMESLVEATVGERVRIPAKYLGYPPPEIKWYKNGIPLESNHTIKAGHVLTIMEVSERDTGNYTVILTNPISKEKQSHVVSLRVYVPPGPG[omitted - human IgG1 Fc]
notes: also called VEGF receptor fusion protein; plasmid/clone 711
With B2, the Kd in experiment [3] stood at 0.0225 nM; in experiment [4], 0.0705 nM; in experiment [5], 0.0464 nM; in experiment [2] it was 0.33 nM. The “EC50 (nM), inhibition” value in experiment [1] worked out at 1.26 nM. For the same molecule, the koff in experiment [2] is 1.7e-05 s⁻¹. This molecule returned an on-rate (kon) in experiment [2] of 51600 M⁻¹ s⁻¹.

B3: Fusion protein KH04 (Fc fusion)
chain: GRPFVEMYSEIPEIIHMTEGRELVIPCRVTSPNITVTLKKFPLDTLIPDGKRIIWDSRKGFIISNATYKEIGLLTCEATVNGHLYKTNYLTHRQTNTIIDVVLSPSHGIELSVGEKLVLNCTARTELNVGIDFNWEYPSSKHQHKKLVNRDLKTQSGSEMKKFLSTLTIDGVTRSDQGLYTCAASSGLMTKKNSTFVRVHEKPFVAFGSGMESLVEATVGERVRIPAKYLGYPPPEIKWYKNGIPLESNHTIKAGHVLTIMEVSERDTGNYTVILTNPISKEKQSHVVSRPVYVPPGPG[omitted - human IgG1 Fc]
notes: also called VEGF receptor fusion protein; plasmid/clone 915
For B3, in experiment [1], the “EC50 (nM), inhibition” value is 1.43 nM. In experiment [2], the Kd stood at 0.35 nM, the off-rate (koff) is 7.27e-05 s⁻¹ and the kon amounted to 206000 M⁻¹ s⁻¹.

B4: Fusion protein KH01 (Fc fusion)
chain: GRPFVEMYSEIPEIIHMTEGRELVIPCRVTSPNITVTLKKFPLDTLIPDGKRIIWDSRKGFIISNATYKEIGLLTCEATVNGHLYKTNYLTHRQTNTIIDVVLSPSHGIELSVGEKLVLNCTARTELNVGIDFNWEYPSSKHQHKKLVNRDLKTQSGSEMKKFLSTLTIDGVTRSDQGLYTCAASSGLMTKKNSTFVRVHEKPFVAFGSGMESLVEATVGERVRIPAKYLGYPPPEIKWYKNGIPLESNHTIKAGHVLTIMEVSERDTGNYTVILTNPISKEKQSHVVSLVVYVPPGPG[omitted - human IgG1 Fc]
notes: also called VEGF receptor fusion protein; plasmid/clone 610
For the molecule B4, in experiment [1], the “EC50 (nM), inhibition” value was found to be 1.93 nM. In experiment [2], this molecule came in with a koff of 3.53e-05 s⁻¹ and a kon of 69100 M⁻¹ s⁻¹.
